Laboratory results as given in publication PMC12040169 (PLOS Biology, 2025).
The list shows a part of the results.

system: T1, C. trachomatis L2/434/Bu expressing GFP (CTL2-GFP); parameters: species or system HeLa; C. trachomatis total inclusion area by high-content imaging, normalised to DMSO; details: total inclusion area; 28.5 h, 10 µM; inhibitor
T1 construct: L2/434/Bu GFP intracellular growth in HeLa cells
How it was run: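 High-content imaging followed the bulk GFP/resorufin measurement: fixed, Hoechst-stained cells were scored for GFP inclusions and host nuclei per well. Total inclusion area and count served as growth proxies, nuclei number as the viability proxy. MIC calculation matched the bulk assay.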

Structure (SMILES)	% of control remaining
CC(C)CN(CC(C)C)C(=O)Cn1cc([N+](=O)[O-])cc(C(N)=O)c1=O [CBK297784]	112.449
CC(C)C(=O)N1CC2(CCN(Cc3ccc(Cl)c(Cl)c3)CC2)c2ccccc21 [CBK126715]	89.3208
O=C(Cc1cccc(F)c1)N1CCC(O)(c2ccccn2)CC1 [CBK283586]	127.215
O=C(O)CCN1CCN(S(=O)(=O)c2ccccc2)CC1 [CBK269402]	114.542
COc1ccc(C2(C(=O)N[C@H]3CC[C@H](O)CC3)CC2)cc1 [CBK149840]	98.2273
O=C(c1c(F)cc(-c2cncc(-c3ccc(O)cc3)n2)cc1F)N1CCOCC1 [CBK131973]	102.578
COc1ccc(S(=O)(=O)N(C)CC(=O)O)cc1C [CBK267176]	77.345
CSc1nnc(CC2CCN(C(=O)c3cccc(N)c3)CC2)n1C [CBK307339]	116.016
CN(C)C(=O)C1(Cc2ccccc2-c2cccs2)CCN(C(=O)Cc2ccccc2)CC1 [CBK285687]	93.2586
CCCN(C(C)C(=O)N(C)C)S(=O)(=O)c1ccc(Cl)cc1 (stereo not drawn) [CBK016123]	44.6649
Cc1cccc(OCc2nc3c4c5c(sc4ncn3n2)CCCCC5)c1C [CBK265284]	103.639
Nc1n[nH]c(CCCc2nc(N)n[nH]2)n1 [CBK261016]	93.3293
O=C(CC(CN1CCN(CCO)CC1)C(=O)O)Nc1ccccc1F (stereo not drawn) [CBK286790]	99.2731
O=C(O)c1cc(NCc2cccc(F)c2F)n[nH]1 [CBK287006]	111.784
COc1ccc(-c2cc(N3CCC(N4CCCCC4)CC3)ncn2)cc1OC [CBK037752]	88.9816
CCC(=O)N1CCCC(c2nnc(-c3cccs3)o2)C1 (stereo not drawn) [CBK283060]	94.0307
O=C(Nc1cccc(C(=O)O)c1)Nc1cccc(-c2ccccc2)c1 [CBK155451G]	65.8906
Cc1nnc(O)c2c(C)n(-c3ccc(Br)cc3)nc12 [CBK008726]	15.2228
Cc1cccc2c1CC(=O)NC21CCN(CC(=O)c2ccc(F)cc2)CC1 [CBK039946]	104.56
O=C(CSc1nc2ccccc2c(=O)n1Cc1ccccc1)c1ccc(Br)cc1 [CBK262700]	102.259
CC(=O)N1CCC(N[C@H]2C[C@@H](Cc3cc(CN4CCCCC4)on3)C2(C)C)CC1 [CBK289699]	113.777
O=C(O)C1CC1(C(=O)O)C(=O)O (stereo not drawn) [CBK261009]	92.9868
COc1ccc(-c2nnc(SCC(=O)c3ccccc3)o2)cc1 [CBK069390]	93.2394
CCOC(=O)N1CCC(NC(=O)N2CCCC(C(=O)N(CC)CC)C2)CC1 (stereo not drawn) [CBK156159]	84.7324
Cc1cccc(C)c1-c1cn2ccnc2c(N2CCN(c3ccccn3)CC2)n1 [CBK037389]	60.4123
CCc1nnsc1C(=O)N1CCc2[nH]c3c(C)cccc3c2C1 [CBK281655]	94.9329

Structure (SMILES)	% of control remaining
O=S(=O)(c1c(Cl)cc(C(F)(F)F)cc1Cl)N1CCOCC1 [CBK057736]	111.84
COc1cncc(-c2cnc3[nH]c(=O)n([C@H](CO)C(C)C)c3n2)c1 [CBK064977]	105.738
Cc1ccc(C2C(C(=O)c3ccc(Cl)cc3)=C(O)C(=O)N2CCCN2CCOCC2)o1 (stereo not drawn) [CBK264514]	99.1712
COc1coc(CN2C(=O)COc3cccnc32)cc1=O [CBK307126]	82.9207
Nc1nnc(C2CCCCC2)s1 [CBK039123]	74.0634
COCCCNS(=O)(=O)c1ccc(-n2ncc(Cl)c(Cl)c2=O)cc1 [CBK305039]	0
CC(C)c1ccc(S(=O)(=O)NCc2c(F)ccc(Cl)c2F)cc1 [CBK043484]	80.9681
Cc1cc2ccccc2n2c(=O)n(CC(=O)NC3CCCC3)nc12 [CBK283884]	76.9277
CN1CCC(N2CCN(C(=O)Nc3ccc(Cl)cc3)CC2)CC1 [CBK155899]	99.2105
Cc1ccc(OC(C)C(=O)N2CCCc3c(cnn3C)C2)cc1 (stereo not drawn) [CBK282242]	99.8112
CC(C)Nc1nc2ccccc2nc1OCc1ccsc1 [CBK115660]	103.189
O=C([C@H]1C[C@@H](O)[C@H](O)[C@@H]2N=C(Nc3ccc4c(c3)OCO4)S[C@@H]21)N1CCCCC1 [CBK288953]	116.94
Nc1c(C(=O)NCC2CCCO2)c2nc3ccccc3nc2n1C1CCCC1 (stereo not drawn) [CBK269217]	54.4439
Cc1ccc(C)c(C(NC(=O)CCCn2ccnc2)c2ccncc2)c1 (stereo not drawn) [CBK281476]	105.614
COc1cc(C(=O)N2CCC3(CC2)CC(=O)c2cc(-c4cccnc4)ccc2O3)cc(OC)c1C [CBK169606]	85.6567
CC[C@H](Cn1nc(-c2cccs2)ccc1=O)NC(=O)C1CCC1 [CBK284295]	77.7741
CCOC(=O)c1cnn(-c2ccccc2)c1NS(=O)(=O)c1cccc(Cl)c1C [CBK024055]	90.3676
COc1ccc(-c2ccccc2)cc1CN(Cc1ccc2c(c1)OCO2)CC(C)O (stereo not drawn) [CBK286471]	87.1737
CC(=O)Nc1ccc(CNC(=O)c2cc(C)n(CC(F)(F)F)c2C)cc1 [CBK304523]	85.6025
COc1cc(CNc2nccnc2-c2ccc(F)cc2)cc(OC)c1OC [CBK037328]	99.0072
O=C(CCCN1C(=O)/C(=C\c2cccs2)SC1=S)Nc1cccc(C(=O)O)c1 [CBK263636]	96.7722
Cn1ncc(Cl)c1C1CCCCCN1C(=O)c1cc(C2CC2)on1 (stereo not drawn) [CBK284973]	105.162
CN1CCN(c2nc(NS(=O)(=O)c3ccc(C#N)cc3)cc3ccccc23)CC1 [CBK002977C]	104.744
O=C(Nc1cc2ccccc2c(Br)n1)C(F)(F)F [CBK063301]	66.5524
Cc1cc(/C=C(\C#N)c2nc3ccccc3[nH]2)c(C)n1-c1ccc(C(=O)O)cc1 [CBK267262]	114.2
